# From PubChem BioAssay AID686979 (National Center for Advancing Translational Sciences (NCATS), 2013)
# Among all 420,000 compounds or so, about 50,000 (12%) were called active. The shares of active, inactive and inconclusive entries below differ from those in the screen. Calls come from the whole dose curve; as a rule, active = well fitted inhibition curve with a large enough effect; inconclusive = small, poorly fitted or top-dose-only effect; inactive = flat fitted curve, though single readings scatter. Potencies of inconclusive entries are left out as doubtful fits.
# Experiment: qHTS for Inhibitors of human tyrosyl-DNA phosphodiesterase 1 (TDP1): qHTS in cells in presence of CPT; note: nearly all actives have a fitted effect of over 55% in size
# Details: chicken DT40 Tdp1-/-;hTDP1 cells + 20 nM CPT, ATP luminescence, 48 h; activity change, negative = growth inhibition: at 46.2 µM (top of the series) unless noted
# Outline: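 Chicken DT40 Tdp1-/- cells complemented with human TDP1, 400 cells/well, exposed to compounds plus 20 nM camptothecin for at least 48 h at 37 C; viability read as ATP content by CellTiter-Glo luminescence.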
# % is set by controls: 0 for no effect and ±100 for the full control effect; potency is the fitted concentration of half-maximal effect; tags give direction and shape of the fitted curve.
Compound,Potency,"activity change, negative = growth inhibition"
Cc1cc(C(C)(C)C)oc1C(=O)N(CC(=O)NC1CCCC1)c1ccc(F)cc1,"inconclusive [inhibitor, partial curve]",–
CC1CCN(C(=O)CCCOc2cc(=O)n(C)c3ccccc23)CC1,"inconclusive [inhibitor, single point]",–
c1ccc(N2CCN(c3ncccn3)CC2)cc1,inactive,–
CC(CN1CCCC1)OC(=O)c1ccc(Br)cc1 (centres undefined),inactive,–
Cc1cc2c(c(=O)n1Cc1ccc3c(c1)OCO3)C(c1cccnc1)C(C#N)=C(N)O2 (centres undefined),inactive,–
Cc1cccc(CN2CCC(CNc3ncnc4onc(-c5ccc(Cl)cc5)c34)CC2)c1,"inconclusive [inhibitor, single point]",–
COc1ccc(N2CCN(C(=O)COC(=O)c3nc(Cl)ccc3Cl)CC2)cc1,inactive,–
Cc1ccc(-c2nnc3c4ccccc4c(C)nn23)cc1NC(=O)c1cccc(Br)c1,inactive,–
O=C(NCC(c1ccco1)N1CCCC1)c1cc2ccccc2s1 (centres undefined),inactive,–
COc1ccc(NC(=S)N2CCC(NC(=O)c3ccc(OC)cc3)CC2)cc1,inactive,–
COc1ccccc1NC(=O)CSc1nc2c(oc3ccccc32)c(=O)n1Cc1ccco1,active: 14.6 µM,–
Cn1cnc([N+](=O)[O-])c1Sc1ncnc2nc[nH]c12,"inconclusive [inhibitor, single point]",–
Clc1cccc(-n2cc(-c3ccccc3)c3c(NC4CCCC4)ncnc32)c1,"inconclusive [inhibitor, single point]",–
COc1ccc(CC(=O)Nc2ccc(S(=O)(=O)Nc3nc(C)cc(C)n3)cc2)cc1,"inconclusive [inhibitor, single point]",–
CC(C)(C)C(=O)c1c(N)[nH]c(C(=O)c2ccccc2)c1-c1ccc(C(F)(F)F)cc1,"inconclusive [inhibitor, single point]",–
CCN(c1ccccc1)S(=O)(=O)c1ccc(Cl)c(NC(=O)COC(=O)c2ccc(O)cc2)c1,"inconclusive [inhibitor, single point]",–
Cc1cc(-c2ccc(C)c(S(=O)(=O)NCCCN(Cc3ccccc3)C(C)C)c2)on1,"inconclusive [inhibitor, single point]",–
Cc1ccc(C(=O)Nc2ccc(S(=O)(=O)NC3=NCCCCC3)cc2)cc1S(=O)(=O)N1CCOCC1,"inconclusive [inhibitor, single point]",–
Cc1ccc(NC(=S)N(CCN(C)C)Cc2cc3cc(C)cc(C)c3[nH]c2=O)cc1,"inconclusive [inhibitor, single point]",–
O=C(O)Cc1csc(-c2ccccc2)n1,inactive,–
Cc1ccccc1NC(=O)CN1C(=O)NC2(CCCCCCC2)C1=O,inactive,–
CCN(CC)C(=O)c1csc(COCCO)n1,inactive,–
O=S(=O)(CCSc1nc2ccccc2o1)Cc1ccccc1,inactive,–
COc1cccc(N2CCN(c3ncnc4c3c(-c3ccccc3)cn4-c3ccc(F)cc3)CC2)c1,"inconclusive [inhibitor, partial curve, poor fit]",–
CCCCN(CC)C(=O)CCCn1c(=O)c2cccn2c2ccccc21,"inconclusive [inhibitor, single point]",–

Compound,Potency,"activity change, negative = growth inhibition"
O=C(Nc1nnc(-c2ccccc2)o1)c1cccc(N2C(=O)CCC2=O)c1,"inconclusive [inhibitor, single point]",–
Cc1ccc(OCc2nc(-c3ccccn3)n[nH]2)cc1,active: 3.26 µM,–
N#Cc1ccc(NC(=S)NCCN2CCOCC2)cc1,inactive,–
CN(C)c1cccc(C(=O)OCCNC(=O)c2cccc(S(=O)(=O)N3CCOCC3)c2)c1,"inconclusive [inhibitor, single point]",–
Cc1ccccc1OCC(=O)Nc1ccc(C)c(S(=O)(=O)N2CCCCCC2)c1,"inconclusive [inhibitor, single point]",–
CN(CC(=O)Nc1cccc(S(=O)(=O)N2CCCC2)c1)CC(=O)Nc1ccc(F)c(F)c1F,"inconclusive [inhibitor, partial curve]",–
O=C(NCc1cccc(Cl)c1)NCc1noc2ccccc12,"inconclusive [inhibitor, single point]",–
COc1ccc(C(=O)CN2CCN(c3ccc(F)cc3)CC2)cc1,inactive,–
CCn1c(=O)cc(OCC(=O)N2CCCC2)c2ccccc21,"inconclusive [inhibitor, single point]",–
C=C(C)C(=O)Nc1cccc(C2=NOC3(C2)C[C@@H](C(N)=O)N(C(=O)c2cc([N+](=O)[O-])cc([N+](=O)[O-])c2C)C3)c1 (some centres undefined),"inconclusive [inhibitor, single point]",–
Cc1ccc(Cn2c(CCNC(=O)C(C)C)nc3ccccc32)cc1,"inconclusive [inhibitor, partial curve]",–
c1cc2cc(-c3c(-c4ccc5c(c4)OCO5)noc3-c3ccsc3)ccc2[nH]1,"inconclusive [inhibitor, single point]",–
CCNc1nc(N)nc(-c2cc(Cl)ccc2O)n1,"inconclusive [inhibitor, single point]",–
COc1ccc(C(=O)NCC(c2cccnc2)N2CCN(c3ccc(F)cc3)CC2)cc1OC (centres undefined),"inconclusive [inhibitor, single point]",–
CCc1ccc(NC(=O)N2CCN(c3ccccc3)CC2)cc1,"inconclusive [inhibitor, single point]",–
COc1ccc2nc(N/C(N)=N/S(C)(=O)=O)nc(C)c2c1,inactive,–
CC(C)(C)c1nc(CN2CCCCC2)cc(CN2CCCCC2)c1O,active: 18.4 µM,–
CCCc1[nH]nc2c1C(c1ccc(Br)s1)C(C#N)=C(N)O2 (centres undefined),active: 6.51 µM,–
COc1cccc(C(=O)CC2c3c(c(Br)c4c(c3OC)OCO4)CCN2C)c1 (centres undefined),–,inactive: 11.2% [at 9.04 µM]
CC(=O)NC12CC3CC(C1)CC(C(=O)OCC(=O)c1cc(C)n(C)c1C)(C3)C2,active: 16.4 µM,–
CCOC1CCCc2oc(-c3ccc(OC)cc3)c(C#CCCO)c21 (centres undefined),"inconclusive [inhibitor, single point]",–
Cc1ccccc1-n1c2nc(=O)n(C)c(=O)c-2cc2ccccc21,inactive,–
CSc1ccc(C(=O)C2CCCN(Cc3cccn3-c3cccnc3)C2)cc1 (centres undefined),active: 4.61 µM,–
CCn1c2ccccc2c2nc3ccccc3nc21,"inconclusive [inhibitor, partial curve, poor fit]",–
O=C(NCC(=O)N(CC1CCCO1)C(C(=O)NC1CCCCC1)c1ccccc1)c1ccco1 (centres undefined),inactive,–

Compound,Potency,"activity change, negative = growth inhibition"
Cc1nc2ccccc2n1CC(=O)NCCN1CCCC1,"inconclusive [inhibitor, partial curve]",–
CCNc1nc(NCC)nc(SCCOC(=O)Nc2ccccc2)n1,"inconclusive [inhibitor, single point]",–
O=C(Cc1ccc(Cl)cc1)NCC(=O)N1CCN(Cc2ccccc2)CC1,"inconclusive [inhibitor, single point]",–
CC1CCCN(S(=O)(=O)c2ccc(NC(=O)CN3CCCCC3)cc2)C1 (centres undefined),inactive,–
O=C(N1CCCC1)N1CCN(S(=O)(=O)c2ccccc2)CC1,inactive,–
COCCn1c(C)cc(C(=O)COC(=O)c2ccc(Cl)c(S(N)(=O)=O)c2)c1C,"inconclusive [inhibitor, single point]",–
Cc1ccc(-c2ccc(/C=N/NC(N)=S)o2)cc1,active: 2.91 µM,–
COc1ccc(NC(=O)CCCC2CCCCC2)c(OC)c1,inactive,–
NC(=O)C1CCN(c2nc(C3CC3)nc3c2nnn3Cc2ccccc2)CC1,–,inconclusive: -32.4% [inhibitor]
COc1cc(/C(C)=N/NC(=O)Cc2c(C)[nH][nH]c2=O)ccc1O,inactive,–
NC(=O)C1CCCNC1 (centres undefined),inactive,–
CCN1C(=O)CC2(C[N+]3(C)CCC2CC3)C1=O (centres undefined),inactive,–
COc1ccc2c(c1OC)C(=O)N1N=C(c3ccc(Br)cc3)CC21 (centres undefined),"inconclusive [inhibitor, single point]",–
Fc1ccc2c(c1)C1OCCCC1C(c1ccccc1)N2 (centres undefined),"inconclusive [inhibitor, single point]",–
Cc1ccc2nc(NC(=O)Cn3cc4c(n3)CCCCC4)sc2c1,inactive,–
CCOC(=O)c1c(NC(=O)c2cc3n(n2)C(C(F)(F)F)CC(c2ccccc2)N3)sc(C)c1C (centres undefined),"inconclusive [inhibitor, single point]",–
COCCOC(=O)c1c(C)oc2ccc(O)c(CN3CCC(C)CC3)c12 (tested in a mixture with another compound),"inconclusive [inhibitor, single point]",–
O=C(NCc1ccc(F)cc1)c1cc2n(n1)C(C(F)(F)F)CC(C1CC1)N2 (centres undefined),"inconclusive [inhibitor, partial curve, poor fit]",–
Cn1c(=O)c2c(nc(SCCN3CCOCC3)n2Cc2ccc(Cl)cc2)n(C)c1=O,inactive,–
CC1CCc2cc(F)ccc2N1C(=O)C1(C)CC1(Cl)Cl (centres undefined),inactive,–
CCCCNC(=S)NCCN1CCN(C(=S)NCCCC)CC1,inactive,–
CCC(=O)N1CCC(C)(C(=O)Nc2ccc3c(c2)OCO3)C1 (centres undefined),–,inconclusive: -35.2% [inhibitor]
Nc1c2c(nc3sc4c(c13)CCCCC4)CCCCC2,"inconclusive [inhibitor, single point]",–
N/C(=N\c1nc2c(c(=O)[nH]1)CCC2)Nc1cccc2ccccc12,"inconclusive [inhibitor, single point]",–
